Data reported in PubChem BioAssay AID1671194 (National Center for Advancing Translational Sciences (NCATS), 2021).
Among all 140,000 compounds or so, about 240 (0.17%) were called active. The shares of active, inactive and inconclusive entries below differ from those in the screen. Calls follow the shape of the dose curve; as a rule, active = well fitted inhibition curve with a large enough effect; inconclusive = small, poorly fitted or top-dose-only effect; inactive = no such curve, though single readings can be large or run the other way. A potency beside an inconclusive call is a rough fit, not a confirmed value.

assay: Primary qHTS assay for inhibitors of alpha-synuclein gene (SNCA) expression; conditions: HEK-293 SNCA-luciferase knock-in, luminescence, 24 h; activity change, negative = inhibition: at 57.2 µM (top of the series) unless noted; also: nearly all actives have a fitted effect of over 45% in size;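 as to activity change, negative = inhibition: plate controls were DMSO cells for no effect and cell-free wells for full effect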
Potency is read from the fitted curve at half-maximal effect; tags tell the direction and shape of the fitted curve.

Row | SMILES | Potency | activity change, negative = inhibition
1 | Cc1ccc(CCNC(=O)C(C)n2nc(C)c3c(C)n(-c4ccc(C)cc4)nc3c2=O)cc1 (stereo not given) | inconclusive: 25.1 µM [inhibitor, single point] | 
2 | COc1ccc(Nc2cc3c(cn2)NCCN(Cc2ccccc2)C3)cn1 | inconclusive: 25.1 µM [inhibitor, partial curve, poor fit] | 
3 | Cc1ccc(CCNC(=O)c2oc(=O)c3ccccc3c2-c2ccc(C)cc2)cc1 | inconclusive: 2.51 µM [inhibitor, single point] | 
4 | CCCS(=O)(=O)c1nc(S(=O)(=O)c2ccc(C)cc2)c(NCC(C)C)s1 | inconclusive: 25.1 µM [inhibitor, partial curve, poor fit] | 
5 | CC1CCN(S(=O)(=O)c2ccc3c(ccc(=O)n3CC(=O)NCc3ccccc3)c2)CC1 | inconclusive: 39.8 µM [inhibitor, single point] | 
6 | COCCN1CCCCCC(O)c2cc(C(=O)N3CCN(c4ccccc4)CC3)ccc21 (stereo not given) | inconclusive: 10 µM [inhibitor, partial curve, poor fit] | 
7 | Cc1ccc(-n2nc(-c3c(C)nc4scc(CC(=O)Nc5ccc(F)cc5)n4c3=O)cc2C)cc1 |  | inactive: -8.84%
8 | CCOc1ccc(CC(=O)NCCc2sc(-c3cccc(F)c3)nc2C)cc1 | inconclusive: 39.8 µM [inhibitor, single point] | 
9 | COc1ccc(CN2CCc3nc(C4CC4)nc(-c4ccc(OC)cc4)c3CC2)cc1 | inconclusive: 15.8 µM [inhibitor, single point] | 
10 | O=C(NCCS(=O)(=O)N1CCN(c2ccc(F)cc2)CC1)c1ccccc1Br | inconclusive: 39.8 µM [inhibitor, single point] | 
11 | Cc1ccsc1CN(C)C1CCc2nn(CC3CC3)c(=O)n2CC1 (stereo not given) | inconclusive: 2.82 µM [inhibitor, full curve] | 
12 | CS(=O)(=O)N1CC2(CCCN2C2COC2)Cc2ccccc21 (stereo not given) | inconclusive: 22.4 µM [inhibitor, partial curve] | 
13 | O=C(Cc1cccc(Cl)c1)NC1CCN(C(=O)c2ccc(-c3cncnc3)cc2)CC1 |  | inactive: 20.2%
14 | CCC(=O)Nc1ccc(C)cc1-c1nc2ccccc2n(CC(=O)c2ccc(C)cc2)c1=O | active: 28.2 µM | 
15 | CCc1ccc(-n2c(=O)c3c(C)c(C(=O)N(C)C)sc3n(CC(=O)Nc3cc(Cl)ccc3C)c2=O)cc1 | inconclusive: 39.8 µM [inhibitor, single point] | 
16 | COc1ccc(-c2noc(CC3CCN(C(=O)C4(c5ccc(OC)cc5)CC4)CC3)n2)cc1 |  | inactive: -11.2%
17 | O=C(NCCc1ccc(Cl)cc1)c1nc2sccn2c1-c1ccncc1 |  | inactive: 6.7%
18 | CN1C[C@@H](NC(=O)c2ccccc2)C[C@H]1c1nc(-c2ccc3c(c2)OCO3)no1 |  | inactive: 40.2% [at 87.6 µM]
19 | COc1ccc(Cl)cc1NC(=O)C(C)n1c(=O)cc(C(F)(F)F)c2c(C)nn(C)c21 (stereo not given) | inconclusive: 3.98 µM [inhibitor, single point] | 
20 | CCCNc1cc(N2CCC(CCC(=O)NCc3ccccc3)CC2)ncn1 | active: 2.51 µM | 
21 | Cc1cccc(-n2nc(C)c(CCC(=O)N3CCOCC3)c2Oc2ccc(F)cc2F)c1 | inconclusive: 39.8 µM [inhibitor, single point] | 
22 | O=C(CC1CCCC1)N1CCOc2ccc(CN3CCc4ccccc4C3)cc2C1 | inconclusive: 14.1 µM [inhibitor, single point] | 

Row | SMILES | Potency | activity change, negative = inhibition
23 | O=C(NCc1ccc(F)cc1)c1ccc2oc(-c3cccnc3)nc2c1 |  | inactive: 0.77% [at 87.6 µM]
24 | COc1ccccc1C(=O)N1CCCc2nc(C)nc(-c3ccc(O)cc3)c2C1 | inconclusive: 39.8 µM [inhibitor, single point] | 
25 | CC(C)CCNC(=O)c1c[nH]c2ccc(S(=O)(=O)Nc3cccc(C(F)(F)F)c3)cc2c1=O | inconclusive: 39.8 µM [inhibitor, single point] | 
26 | Cc1ccc(C(=O)N2CC(=O)Nc3ccc(Br)cc3C2c2ccc(F)cc2)cc1C (stereo not given) | inconclusive: 25.1 µM [inhibitor, single point] | 
27 | COC(=O)CNC(=O)c1nc(-c2cccc(C(F)(F)F)c2)c2ccccn12 |  | inactive: 1.48%
28 | CC(C)Cc1cc(C(=O)N2C[C@H](C3CC3)[C@@H](N)C2)n(C)n1 |  | inactive: -16.9%
29 | O=C(CCCc1ccccc1)N1CCC(Cc2noc(-c3ccccc3)n2)C1 (stereo not given) |  | inactive: 3.6%
30 | O=C(c1ccco1)N1CCC[C@H]1c1nc(-c2ccccc2)no1 | inconclusive: 11.2 µM [inhibitor, partial curve, poor fit] | 
31 | O=C(c1ccc(-c2cccs2)cc1)N1CCC(N[S+](=O)([O-])c2ccccc2)CC1 |  | inactive: -3.99%
32 | O=C(Cn1c(-c2cccs2)cc2ccccc21)NCCCN1CCN(c2cccc(Cl)c2)CC1 | inconclusive: 20 µM [inhibitor, single point] | 
33 | COc1ccccc1-c1cc(C(=O)NCCSC)nn2cccc12 |  | inactive: 7.11%
34 | O=C(NCCc1ccccc1)[C@@H]1CCCN1c1nccc(Nc2ccccc2Cl)n1 |  | inactive: 5.47%
35 | COc1ccc(CN2CCC3(C2)C(=NC2CCCC2)NC(=O)N3c2cccc(OC)c2)cc1 (stereo not given) | inconclusive: 10 µM [inhibitor, partial curve, poor fit] | 
36 | COc1cccc(-c2cc3c(=O)n(CCNC(=O)c4ccoc4)ccn3n2)c1 |  | inactive: 16.6%
37 | CS(=O)(=O)c1ncc(Cl)c(C(=O)N(Cc2ccc(Cl)cc2)Cc2ccco2)n1 | inconclusive: 5.62 µM [inhibitor, full curve, poor fit] | 
38 | Cn1cc(CC(=O)N2CCCc3ncc(C(=O)N4CCC(c5ccccc5)CC4)cc32)c2ccccc21 | inconclusive: 12.6 µM [inhibitor, partial curve, poor fit] | 
39 | N#CCCn1c(=O)c(-c2cccs2)nc2cnc(N3CCOCC3)nc21 | inconclusive: 1.41 µM [inhibitor, partial curve, poor fit] | 
40 | O=C(NCc1cccc(Cl)c1)c1noc(-c2ccc(F)cc2)n1 | inconclusive: 39.8 µM [inhibitor, single point] | 
41 | Cc1oc(-c2ccccc2Cl)nc1CS(=O)CC(=O)N1CCN(c2cccc(C(F)(F)F)c2)CC1 (stereo not given) | active: 12.6 µM | 
42 | COc1ccc(-c2nnc([C@H]3CCN(Cc4ccc(F)c(F)c4)C3)o2)cc1 | inconclusive: 5.01 µM [inhibitor, full curve] | 
43 | O=C(CSc1nnc(-c2ccccc2Br)n1-c1ccccc1)c1ccc(F)cc1 | inconclusive: 39.8 µM [inhibitor, single point] | 
44 | CC(C)(C)C1CCc2nc(NC(=O)c3cccc(Cl)c3)sc2C1 (stereo not given) | inconclusive: 22.4 µM [inhibitor, single point] | 

Row | SMILES | Potency | activity change, negative = inhibition
45 | CCn1nccc1C(=O)N1C[C@@H]2CCCN3CCC[C@@H]([C@H]23)[C@H]1CCCC(=O)NC |  | inactive: 12.6%
46 | Cc1cc(-c2ccc(S(=O)(=O)Nc3cccc(C)c3C)s2)on1 | inconclusive: 39.8 µM [inhibitor, single point] | 
47 | CCCCSCCCNC(=O)C1CCN(Cc2nc(-c3ccc(CC)cc3)oc2C)CC1 | inconclusive: 39.8 µM [inhibitor, single point] | 
48 | Cc1cccc(N2Cc3c(ncnc3N3CCC(N4CCOCC4)CC3)CN(C)C2=O)c1 | inconclusive: 3.98 µM [inhibitor, partial curve, poor fit] | 
49 | Cc1ccc(NC(=O)C2CCCN(S(=O)(=O)c3ccccc3)CCC(=O)NCC2)cc1 (stereo not given) |  | inactive: 11.7%
50 | CC1(C(=O)O)CCN(C(=O)c2ccc(F)cc2)CC1 |  | inactive: 9.65% [at 87.6 µM]
51 | CCn1cc(S(=O)(=O)N2C[C@@H](Oc3cccnc3)C[C@H]2C(=O)NC)cn1 |  | inactive: -6.17%
52 | COc1ccc(-n2c(-c3ccccc3F)nc3c(cnn3-c3ccc(C)cc3)c2=O)cc1 | inconclusive: 6.31 µM [inhibitor, partial curve, poor fit] | 
53 | CCOc1cc(Cn2c(-c3ccc(O)c(OCC)c3)nc3ccccc32)ccc1O | inconclusive: 10 µM [inhibitor, partial curve] | 
54 | CCOC(=O)[C@H](CCc1ccccc1)N[C@H]1CCc2ccccc2N(CC(=O)O)C1=O | inconclusive: 48.2 µM [inhibitor, single point] | 
55 | CC(C)C(=O)N1CCCC(c2noc(COc3ccccc3F)n2)C1 (stereo not given) |  | inactive: 64.1%
56 | O=C(Nc1ccccc1Cl)c1ccc(F)c(S(=O)(=O)NCc2ccc(Cl)c(Cl)c2)c1 | inconclusive: 39.8 µM [inhibitor, single point] | 
57 | COc1ccc(-c2cnc3[nH]cc(CC(=O)Nc4ccc(F)c(Cl)c4)c3c2)cc1 |  | inactive: 30.5% [at 87.6 µM]
58 | CC(=O)Nc1ccccc1-c1nc2ccccc2n(C(C)C(=O)Nc2cc(Cl)ccc2C)c1=O (stereo not given) | inconclusive: 39.8 µM [inhibitor, single point] | 
59 | Cc1noc2c(NCc3cccnc3)cc(-c3ccc(Cl)cc3)nc12 | inconclusive: 7.08 µM [inhibitor, full curve, poor fit] | 
60 | COc1ccc(NC(=O)N2CCc3c(C(=O)N(C)Cc4ccco4)cccc32)cc1 | inconclusive: 14.1 µM [inhibitor, partial curve, poor fit] | 
61 | CC[C@H]1CN(S(C)(=O)=O)CC[C@H]1CC(=O)NCCSC | inconclusive: 56.2 µM [inhibitor, single point] | 
62 | Cc1csc2nc(COC(=O)c3ccc(F)cc3)cc(=O)n12 | inconclusive: 14.1 µM [inhibitor, single point] | 
63 | CCc1nc2c(=O)n(CC(=O)N(CC)Cc3ccccc3)nc(C)c2s1 |  | inactive: -27%
64 | Cc1ccc(-n2ncc3c(N4CCCCC4)ncnc32)cc1Cl | active: 7.08 µM | 
65 | CCc1cccc(C)c1NC(=O)c1cc(S(=O)(=O)N(C)Cc2ccccc2)ccc1F | inconclusive: 22.4 µM [inhibitor, single point] | 
